# In article PMC6919601, “Identification of Plasmodium dipeptidyl aminopeptidase allosteric inhibitors by high throughput screening” (PLoS ONE, 2019):
# Hit rate of the full screen: of about 110,000 compounds, about 230 (0.21%) showed an effect of 50% or more. The list shows a part of the results.
# Target: DPAP1 (Plasmodium falciparum, UniProt Q8IIJ9)
# Assay: primary screen, percent inhibition; read by cleavage of a fluorogenic dipeptide substrate; higher = more effect of the substance
# Design: species or system P. falciparum D10 trophozoite lysates; single well
# 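Note: 30 min substrate incubation versus DMSO and 10 µM JCP410 controls.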
# Sequence of DPAP1 (Q8IIJ9 whole entry, looked up): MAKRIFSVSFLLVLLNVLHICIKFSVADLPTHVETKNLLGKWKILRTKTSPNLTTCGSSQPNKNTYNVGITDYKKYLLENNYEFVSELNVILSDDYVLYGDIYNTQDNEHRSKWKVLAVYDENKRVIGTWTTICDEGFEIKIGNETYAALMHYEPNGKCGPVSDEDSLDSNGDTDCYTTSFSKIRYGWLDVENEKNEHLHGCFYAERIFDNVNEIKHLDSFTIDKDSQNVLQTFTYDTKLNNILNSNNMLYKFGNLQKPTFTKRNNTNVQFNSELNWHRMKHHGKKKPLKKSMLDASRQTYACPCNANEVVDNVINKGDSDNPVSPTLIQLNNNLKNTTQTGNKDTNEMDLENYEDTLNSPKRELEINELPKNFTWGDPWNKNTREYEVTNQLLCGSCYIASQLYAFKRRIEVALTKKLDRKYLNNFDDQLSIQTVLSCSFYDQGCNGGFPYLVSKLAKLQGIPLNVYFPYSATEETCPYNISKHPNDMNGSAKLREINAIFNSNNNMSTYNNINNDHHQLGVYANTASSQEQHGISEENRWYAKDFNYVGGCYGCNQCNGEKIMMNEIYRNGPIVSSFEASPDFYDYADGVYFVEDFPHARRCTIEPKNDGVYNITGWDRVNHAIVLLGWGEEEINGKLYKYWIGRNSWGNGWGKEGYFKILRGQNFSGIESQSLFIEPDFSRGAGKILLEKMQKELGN
row,Structure (SMILES),% Inhibition @ 10 uM [%]
1,Cc1nc2ccc(NC(=S)NC3CC3)cc2nc1C,2.16
2,C=CC[n+]1c(C=C2C=CN(C)C=C2)sc2ccccc21,-6.71
3,Cn1c(=O)c(C(=O)Nc2nc(C3C4CC5CC(C4)CC3C5)cs2)c(O)c2ccccc21 (stereo not shown),-16.1
4,Cc1ccccc1OCc1nnc2c3cnn(C)c3ncn12,-3.96
5,COc1ccc(CN2CCN(C(=O)c3cccnc3S)CC2)c(OC)c1OC,21.2
6,CCOC(=O)c1c(NC(=O)COc2cccc(C(F)(F)F)c2)sc(C)c1C,5.41
7,CCOC(=O)c1cc2c(s1)-c1ccccc1S(=O)(=O)C2,1.91
8,O=C1OCC/C1=C\c1ccccc1O,-0.0369
9,O=C(NCCn1ccc2ccccc21)C(=O)c1cn(CC(=O)N2CCCC2)c2ccccc12,-4.18
10,COc1ccccc1C1SC(NC(C)=O)=NN1C(C)=O (stereo not shown),-0.053
11,COc1ccccc1OCCCc1c(C)n[nH]c1C,1.9
12,COC(=O)C1=C(C)N(C)C(=O)/C1=C\c1cc(C)n(-c2ccc(Cl)cc2)c1C,3.47
13,O=C(CN1CCN(Cc2ccccc2Cl)C1=O)NCCCN1CCOCC1,2.02
14,CCOC(=O)c1[nH]c(C)c(C(=O)N(CC)Cc2ccccc2)c1C,1.72
15,CC1CC(C)CN(C(=O)Cn2ncc3c(Cl)cccc32)C1 (stereo not shown),0.596
16,CCn1ncc(/C=C2\CCCC3=C2OC(N)=C(C#N)C3c2cnn(CC)c2C)c1C (stereo not shown),-1.98
17,O=C(COc1ccc(Cl)cc1Cl)Nc1ccc(S(=O)(=O)N2CCCCC2)cc1,2.55
18,O=C(Nc1cccc2cccnc12)c1ccco1,1.65
19,Cc1cc(C)c2c(n1)SCC(=O)N2CC(=O)N1CCN(C)CC1,-4.15
20,COc1ccc(Br)cc1CNC(=O)c1cc2oc3ccccc3c2n1C,0.0882
21,Cc1cc(OCC(=O)Nc2sc(C)c(C)c2C(N)=O)ccc1Br,0.163
22,COc1ccc(NCc2ccc(N)cc2)cc1,4.16
23,CC(=O)C(C#N)NC(=O)[C@H](CC(C)C)NC(=O)OCc1ccccc1 (stereo partly shown),0.173
24,C/C(=C\C(=O)NC(C)Cc1ccccc1)c1ccccc1 (stereo not shown),-3.86
25,Cc1ccc(S(=O)(=O)N(CC(O)CN2CCOCC2)c2cccc(C)c2)cc1 (stereo not shown),-2.05
26,COc1cccc(CNCc2c(C(=O)O)n(Cc3ccccc3F)c3ccccc23)c1OC,0.896

row,Structure (SMILES),% Inhibition @ 10 uM [%]
1,Cc1ccc2c(=O)c(C(=O)c3ccccc3)cn(CC(=O)NCc3ccccc3Cl)c2n1,0.451
2,O=C(O)CCC(=O)Nc1ccccc1C#Cc1ccc(Br)cc1,0.829
3,COc1ccc(Cl)cc1NC(=O)c1ccoc1C,3.53
4,CCOC(=O)N1CCN(S(=O)(=O)c2ccc3oc(=O)c4ncn(C)c4c3c2)CC1,-8.5
5,O=C1/C(=C/c2ccccn2)CC(c2ccccc2)C/C1=C\c1ccccn1 (stereo not shown),4.06
6,Cc1cc(Cl)ccc1NC(=O)CN(c1ccc2c(c1)OCCO2)S(=O)(=O)c1ccccc1,-2.65
7,O=C(NCCCCc1ccccc1)c1ccc(-c2ccccc2)cc1,-6.78
8,Cn1c(=O)c2c(ncn2CCCNC2=NCCC2)n(C)c1=O,-0.994
9,CCn1c(SC)nc2c(c1=O)C1(CCCCC1)Cc1ccccc1-2,1
10,COc1cc(CN2CCCN(C)CC2)cc(OC)c1O,-0.828
11,COc1ccccc1-n1nc(C)cc1NC(=O)NC(=O)c1ccc(C(F)(F)F)cc1,-2.5
12,CC(Oc1ccccc1Cl)C(=O)N1CCOCC1 (stereo not shown),0.83
13,CC(=O)Nc1ccc(NC(=O)c2scc3c2OCCO3)cc1,4.11
14,Cc1ccc2[nH]c3c(c2c1)CCCC3NCCCO (stereo not shown),1.48
15,CC1CC(C)(C)OC(C(C)(C)CN(C)C)O1 (stereo not shown),6.24
16,O=C1N/C(=C\c2ccc(O)cc2)C(=O)c2ccccc21,9.53
17,COCCCNC(=O)C1CCN(c2nc3c(C)cc(C)cc3s2)CC1,0.137
18,COc1ccc(Br)cc1/C=c1\sc2nc(-c3cccnc3)nn2c1=O,0.222
19,COc1ccc2[nH]c3c(=O)n(CCC(=O)N4CCN(c5ccccn5)CC4)c(=S)[nH]c3c2c1,-7.65
20,CCC1CCCCN1S(=O)(=O)c1ccc2nc(O)ccc2c1 (stereo not shown),-0.901
21,OC1(c2ccccc2)CC(c2ccccc2)Oc2ccccc21 (stereo not shown),2.01
22,Cc1[nH]c2ccccc2c1CN1CCN(c2ccccc2)CC1,-4.35
23,N#CCNC(=O)C(CCC1CCCCC1)NC(=O)c1ccccc1 (stereo not shown),5.75
24,NC(=O)c1c(NC(=O)COc2ccc(Cl)cc2)sc2c1CCCCCC2,-4.33
25,CN(C)CCNS(=O)(=O)c1ccc(-c2cc(C(F)(F)F)no2)s1,4.23
26,Cc1cccc(C(=O)Nc2ccccc2C#N)c1,-1.89

row,Structure (SMILES),% Inhibition @ 10 uM [%]
1,O=C(NCCc1ccc(Cl)cc1)C1CCN(c2nnc(-n3cccc3)s2)CC1,-4.04
2,C=CCOc1ccc(C(=O)C2=C(O)C(=O)N(c3ccccn3)C2c2ccc(F)cc2)cc1 (stereo not shown),2.86
3,CCc1nnc(NC(=O)c2cccc(S(=O)(=O)N(CC)CC)c2)s1,-6.46
4,CCOC(=O)C(/C=N/c1cc(-c2cccc(Br)c2)[nH]n1)=C(\O)OCC,-6.17
5,OCCCNc1nc(O)c2c(n1)-c1ccccc1CC21CCCCC1,-2.15
6,Cc1ccc(Cn2c(=O)c3cccnc3n(Cc3ccc(C#N)cc3)c2=O)cc1,-11.2
7,CC(=O)Nc1ccc(NC(=O)C2CCCCC2)cc1C,-0.756
8,CC(=O)c1ccc(NC(=O)Cn2nc(C(F)(F)F)cc2C2CC2)cc1,-1.04
9,c1ccc2c(CN3CCOCC3)ccnc2c1,2.91
10,CC(Cc1c[nH]c2ccccc12)N1C(=O)C2CCCCC2C1=O (stereo not shown),1.52
11,CCOc1ccc(Nc2nc(-c3c(C)nc4ccccn34)cs2)cc1,2.23
12,COc1ccc(C2NC(=O)C(C)S2)cc1 (stereo not shown),-3.79
13,COCCNC(=O)C1=CC(c2ccc(OC)cc2)=NS(=O)(=O)N1C,0.444
14,CC1(c2ccccc2)CC(C)(C)N2C(=O)Cc3cccc1c32 (stereo not shown),-2.77
15,O=C1OC(c2cccs2)=N/C1=C/c1cccc2ccccc12,0.952
16,CC1CCN(S(=O)(=O)c2ccc(NC(=O)c3ccc4c(c3)OCO4)cc2)CC1,-1.63
17,CCC(C)NC(=O)c1ccccc1-c1nc2ccccc2[nH]1 (stereo not shown),23.4
18,COc1cc(C)cc2oc(=O)cc(C)c12,2.41
19,O=C(O)CC(NC(=O)c1ccncc1)c1ccccc1 (stereo not shown),0.222
20,CCOc1ccccc1NC(=O)C1=C(C)NC(=O)NC1c1ccc(F)cc1 (stereo not shown),-5.69
21,CCc1nnc2c3c4c(sc3nc(CC)n12)CCCC4,-8.12
22,CCCCCn1c(=O)c(C(=O)Nc2cccc(C)c2)c(O)c2ccccc21,-2.88
23,CSc1nc(C)cc(Oc2ccc(=O)n(C)n2)n1,-2.14
24,CNC(=O)CSc1cn(CC(=O)N2CCOCC2)c2ccccc12,4.8
25,CCn1cc(C(=O)N2CCC3(CC2)OCCO3)c2cc(OC)c(OC)cc2c1=O,-7.33
26,Cc1ccc(N2C(=O)NC(=O)/C(=C/Nc3ccc(S(=O)(=O)NCc4ccccc4)cc3)C2=O)cc1,2.45

row,Structure (SMILES),% Inhibition @ 10 uM [%]
1,COCCN1C(=O)c2oc3ccc(F)cc3c(=O)c2C1c1ccc(C(=O)OC)cc1 (stereo not shown),0.628
2,CCc1ccc(CN2CCN(Cc3cccc(OC)c3OC)CC2)cc1,-1.68
3,c1ccc(CCNc2nc3c(-c4ccccc4)nnn3c3ccccc23)cc1,-6.52
4,CC1(C)Cc2ccccc2-c2nnc(C(F)(F)F)n21,3.01
5,O=C(C1CC1)N1CCN(Cc2ccccc2)CC1,-7.63
6,CCSC(=O)N(CC)CC(=O)Nc1c(CC)cccc1CC,1.92
7,CCCN(CCC)C(=O)c1cc(S(=O)(=O)N2CCOCC2)cn1C,1.1
8,CCc1ccc(C2C(C#N)=C(N)Oc3c2c(O)nc2ccccc32)cc1 (stereo not shown),-0.446
9,O=C(COc1ccccc1)Nc1cccc2c1CCCC2,1.92
10,COc1ccc(S(=O)(=O)c2cnc3ccc(F)cc3c2O)cc1,-0.22
11,Cc1ccc(S(=O)(=O)Cc2c(C)noc2C)cc1,-1.61
12,CCOc1ccccc1NC(=O)C1CC(=O)N(c2ccc(CC)cc2)C1 (stereo not shown),-1.96
13,CNC(=O)C1=C(C)NC(=O)NC1c1ccccc1F (stereo not shown),-1.57
14,CNC(=O)CN(c1ccc(C)cc1)S(=O)(=O)c1ccc(OC)c(Br)c1,-3.04
15,Cc1nnc(N2C(=O)C(O)=C(C(=O)c3ccc(F)cc3)C2c2cccc(Oc3ccccc3)c2)s1 (stereo not shown),2.17
16,CC(C)N(CCCNC(=O)Cn1ncc2c3ccccc3n(C)c2c1=O)Cc1ccccc1,3.2
17,COc1cc(CO)cc(Br)c1OCC(=O)N1CCCCC1,-6.02
18,COc1ccc(CCNc2nc3ccc(C(=O)c4ccccc4)cc3n3c(C)nnc23)cc1OC,4.95
19,CCCCNC(=O)c1ccc(CS(=O)(=O)Cc2ccccc2F)o1,-2.72
20,Fc1ccc(C2NCc3ccccc3-n3cccc32)cc1 (stereo not shown),-2.54
21,Cc1nn(CCC(=O)N2CCOCC2)c(=O)c2nn(-c3ccccc3)c(C)c12,1.26
22,CNc1ncc(Br)nc1N,-1.08
23,CCC(C)NC(=O)c1ccc2c(c1)ncn2-c1cc(C)cc(C)c1 (stereo not shown),-5.64
24,CCc1ccccc1NC(=O)c1c(OC)cccc1OC,0.317
25,CCOc1ccc(CCNC(=O)c2nnc(Cc3ccc4c(c3)OCO4)o2)cc1OCC,2
